# Results from PubChem BioAssay AID1347430 (National Center for Advancing Translational Sciences (NCATS), 2020).
# In all, about 91,000 compounds went through this assay and about 130 (0.14%) were called active. The inconclusive results got no clear call from the source; some entries with a clear call stand among them for comparison. Calls follow the shape of the dose curve; as a rule, active = well fitted inhibition curve with a large enough effect; inconclusive = small, poorly fitted or top-dose-only effect; inactive = flat fitted curve, though single readings scatter. Potencies beside an inconclusive call are fits to weak or partial responses and may not hold up.
# Tested on: Uracil-DNA glycosylase
# Test: Primary qHTS assay for inhibitors of Activation Induced Cytidine Deaminase (AID): UDG Counterscreen signal; also: nearly all actives have a fitted effect of over 65% in size
# Conditions: FRET deamination/UDG coupled assay, UDG read, 4 h; series mostly up to 115 µM
# Potency is read from the fitted curve at half-maximal effect; tags tell the direction and shape of the fitted curve.
row,SMILES,Potency
1,COc1ccc(NS(=O)(=O)c2ccc3[nH]c4c(c3c2)CCCC4)cc1Cl,inactive
2,Cc1ccccc1C(=O)OCc1cc(=O)n2nc(-c3cccs3)sc2n1,"inconclusive: 89.1 µM [inhibitor, single point]"
3,Cc1cc(C)c2[nH]c(C)c(CN3CCC(C)CC3)c(=O)c2c1,inactive
4,C=CCOc1cccc2[nH]c(C(=O)O)cc12,inactive
5,Cc1c(O)ccc2c(CN(C)CC(=O)Nc3ccc(Cl)cc3)cc(=O)oc12,inactive
6,CCOc1ccc(NC(=O)CN2CCCN(Cc3cc(C)ccc3C)S2(=O)=O)cc1,"inconclusive: 79.4 µM [inhibitor, partial curve, poor fit]"
7,Cc1cc(S(=O)(=O)Nc2ccc(-c3ccc(N4CCCCCC4)nn3)cc2)c(C)cc1Cl,"inconclusive: 100 µM [inhibitor, single point]"
8,COCCNC(=O)c1cccc(-n2c(C)nc3cccnc32)c1,"inconclusive: 89.1 µM [inhibitor, single point]"
9,CC1Sc2ccc(C(=O)Nc3nc(-c4cccnc4)cs3)cc2NC1=O (stereo not drawn),inactive
10,CCN(Cc1ccccc1)C(=O)Cn1c(=O)n(-c2ccc(C)c(C)c2)c(=O)c2c(C)c(C)sc21,"inconclusive: 89.1 µM [inhibitor, single point]"
11,O=S(=O)(c1ccccc1Cl)N1CCn2cccc2C1c1ccccc1F (stereo not drawn),"inconclusive: 44.7 µM [inhibitor, partial curve, poor fit]"
12,CCOc1ccc(-n2nc3ccc(NC(=O)COc4ccc(OC)cc4)cc3n2)cc1,"inconclusive: 89.1 µM [inhibitor, partial curve]"
13,CCN(CC)c1ccc(-c2nc(-c3ccccc3C)no2)cc1[N+](=O)[O-],"inconclusive: 79.4 µM [inhibitor, partial curve]"
14,Cc1ccc(C)c(Cn2c(C3CC(=O)N(c4ccccc4C)C3)nc3ccccc32)c1 (stereo not drawn),"inconclusive: 89.1 µM [inhibitor, partial curve, poor fit]"
15,Cc1ccc2c(=O)cc(C(=O)Nc3sc4c(c3C(=O)NCc3cccnc3)CCCC4)oc2c1C,"inconclusive: 39.8 µM [inhibitor, single point]"
16,Cc1ccccc1/[N+]([O-])=C\c1cccs1,"inconclusive: 44.7 µM [inhibitor, partial curve, poor fit]"
17,CCOc1ccc(CN2CCc3nc(Nc4ccc(OC)cc4OC)ncc3C2)cc1,"inconclusive: 20 µM [inhibitor, full curve, poor fit]"
18,Cc1ccc(NC(=O)c2sc3nc4c(cc3c2N)CN(Cc2ccccc2)CC4)cc1,inactive
19,O=C(CSC1CCCCC1)c1ccccc1Br,inactive
20,COc1ccc(NC(=O)CSC2=Nc3ccccc3C3=NC(CCC(=O)NC4CCCCC4)C(=O)N23)cc1 (stereo not drawn),"inconclusive: 89.1 µM [inhibitor, single point]"
21,CC(CO)(CO)NC(=O)COc1cc(O)c2c(=O)cc(-c3ccccc3)oc2c1,"inconclusive: 79.4 µM [inhibitor, single point]"
22,COc1cc(C(=O)NCC(c2cccs2)S(=O)(=O)c2cccs2)cc(OC)c1OC (stereo not drawn),"inconclusive: 70.8 µM [inhibitor, partial curve, poor fit]"

row,SMILES,Potency
1,Cc1ccccc1CN1CCC(CNC(=O)c2c(C)oc3ncnc(N4CCCCC4)c23)CC1,"inconclusive: 100 µM [inhibitor, single point]"
2,CC(C)C(N)c1cccs1 (stereo not drawn),inactive
3,Cc1ccc(Cl)cc1N1CCN(C(=O)c2ccc(CS(=O)(=O)c3ccccc3C)o2)CC1,"inconclusive: 89.1 µM [inhibitor, single point]"
4,CN(Cc1ccc2c(c1)OCCO2)CC(O)COc1ccccc1C(C)(C)C (stereo not drawn),inactive
5,C[Si](C)(C)CN1CCN(CC(=O)Nc2ccccc2Cl)CC1,inactive
6,CCc1ccc(CN(Cc2cn[nH]c2-c2ccc(OC)cc2)C(=O)Nc2cc(Cl)ccc2OC)cc1,"inconclusive: 56.2 µM [inhibitor, partial curve, poor fit]"
7,Cc1nc2c(C(=O)NCc3ccccc3)c[nH]n2c(=O)c1Cc1ccccc1Cl,inactive
8,O=C(COC(=O)c1cccc([N+](=O)[O-])c1C(=O)OCC(=O)c1ccc(Br)cc1)c1ccc(Br)cc1,"inconclusive: 56.2 µM [inhibitor, partial curve, poor fit]"
9,COc1ccc2nc(/C(C#N)=C\c3ccco3)[nH]c2c1,inactive
10,O=C(NC(=O)c1ccc(F)cc1)Nc1ccc(-c2cc(C(F)(F)F)nn2-c2ccccc2)cc1,"inconclusive: 79.4 µM [inhibitor, partial curve, poor fit]"
11,COc1cc(NC(=O)c2ccc(C)cc2)ccc1NC(=O)c1cc2ccccc2o1,inactive
12,CN1C(=O)c2ccccc2Sc2ccc(NC(=O)c3ccccc3F)cc21,"inconclusive: 79.4 µM [inhibitor, partial curve, poor fit]"
13,CC(C)(C)OC(=O)N1CCC(c2c(C(=O)N3CCC(c4ccccc4)C3)cnn2-c2cccc(Cl)c2)CC1 (stereo not drawn),"inconclusive: 50.1 µM [inhibitor, single point]"
14,Cc1cc(CS(=O)(=O)CC(=O)NC2CCCCCC2)no1,inactive
15,Cc1ccc(NC(=O)NCCc2c(C)nn(C)c2C)cc1Cl,"inconclusive: 100 µM [inhibitor, partial curve, poor fit]"
16,COc1ccc(N(C)C(=O)c2cn(C3CCCCC3)c(=O)c3c2c2ccccc2n3C)cc1,"inconclusive: 63.1 µM [inhibitor, single point]"
17,OCCNC(=S)Nc1ccc(Br)cc1,inactive
18,COc1ccc(-n2c(=O)c3c4c(sc3n(Cc3ccc(F)cc3)c2=O)CCCC4)c(OC)c1,"inconclusive: 89.1 µM [inhibitor, single point]"
19,CCOc1ccc(Nc2cc(C)nc3ccc(Cl)cc23)cc1,inactive
20,O=c1cc(-c2ccccc2)nc(SCc2nc(-c3ccccc3Cl)no2)[nH]1,"inconclusive: 89.1 µM [inhibitor, single point]"
21,CC(C)C(=O)NC(Nc1cccc2ccccc12)C(Cl)(Cl)Cl (stereo not drawn),"inconclusive: 39.8 µM [inhibitor, partial curve]"
